# Measured values reported in PubChem BioAssay AID463173 (ICCB-Longwood Screening Facility, Harvard Medical School, 2010).
# Out of some 52,000 compounds screened, about 1,700 (3.3%) were called active. No stated cut-off is given here; in the data, active means survival mostly below about 52% (no sharp cut-off); inactive means mostly above about 56%. The list shows a part of the results.
# Tested on: Wild type
# Test: S. aureus survival, RN4220 and DeltatarO strains – OD600, teichoic acid synthesis inhibitors, primary screen (AID 463173)
# Conditions: S. aureus RN4220 wild type/DeltatarO growth, OD600, 18 h, active compounds read low, screened at 18.75 µg/mL (by protocol)
row,Structure (SMILES),survival
1,CCC1CCCCN1C(=O)CSc1nc(-c2ccc(OC)c(OC)c2)cc(C(F)(F)F)n1 (stereo unspecified),active: -15%
2,O=C1c2ccccc2C(=O)C1(O)N1CCOCC1,inactive: 105%
3,Cc1cc([N+](=O)[O-])ccc1NC(c1nnc(-c2ccccc2)o1)c1ccccc1F (stereo unspecified),inactive: 99%
4,Cc1ccc(Cn2c(SCC(=O)NCc3ccccc3Cl)nc3ccsc3c2=O)cc1,active: -6%
5,CCOC(=O)c1cc2c(=O)n3ccccc3nc2n(Cc2ccco2)c1=NC(=O)c1cccc(F)c1,inactive: 43%
6,Fc1ccc(Nc2nc(SCc3ccccc3F)nc3ccccc23)cc1,inactive: 47%
7,COc1cc(NC(=O)CCCc2nnc3n(CC(C)C)c(=O)c4sccc4n23)cc(OC)c1,inactive: 97%
8,Cc1nc2cc(C(=O)NC3CCCCCC3)ccc2n1-c1ccc(Br)cc1,inactive: 65%
9,CC(C)N(C(=O)CSc1nnc(Cc2csc(Nc3ccccc3)n2)o1)C(C)C,inactive: 114%
10,CC(=O)N1CCc2cc(Br)cc(S(=O)(=O)CCC(=O)N3CCN(c4ccccc4)CC3)c21,inactive: 62%
11,CCOc1ccc2nc(N3CCCC(C(=O)Nc4ccc(OC)c(Cl)c4)C3)sc2c1 (stereo unspecified),inactive: 89%
12,Cc1cc(-c2ccc(C)c(S(=O)(=O)NCCc3ccc(S(N)(=O)=O)cc3)c2)on1,inactive: 69%
13,CC(C)c1ccc(NS(=O)(=O)c2ccc3[nH]cc(C(=O)NCC4CCCO4)c(=O)c3c2)cc1 (stereo unspecified),inactive: 115%
14,NC(=O)C1CCN(C(=O)CN2CCc3ccccc3C2)CC1,inactive: 115%
15,O=C(CSc1nc(-c2ccco2)cc(C(F)(F)F)n1)Nc1ccccc1,inactive: 105%
16,CN(C)S(=O)(=O)c1ccc2c(c1)N(CC(=O)Nc1ccc(F)cc1)C(=O)CS2,inactive: 68%
17,Cc1ccc2oc(=O)c3cc(C(=O)N(Cc4ccccc4)C(C)C)sc3c2c1,inactive: 84%
18,O=C(CSc1oc(-c2ccco2)nc1S(=O)(=O)c1ccc(Cl)cc1)c1ccc(Cl)cc1,inactive: 102%
19,Cc1ccc(CN2c3ccccc3S(=O)(=O)c3ccccc32)cc1,inactive: 82%

row,Structure (SMILES),survival
1,COc1ccc(CNC(=O)CC2N=C3c4ccccc4N=C(SCC(=O)Nc4ccc(N(C)C)cc4)N3C2=O)cc1 (stereo unspecified),inactive: 84%
2,COc1ccc(-c2c3c(=O)n(C)c(=O)n(C)c3c3c(-c4ccc(C)cc4)nc4ccccc4n23)cc1,inactive: 83%
3,Cc1ccc(NC(=O)Cn2c(-c3ccc4c(c3)OCO4)cn(-c3ccccc3)c2=O)cc1,inactive: 72%
4,Cc1ccc2c(c1)c1c(c(=O)n(Cc3ccccc3)c(=O)n1CC(=O)Nc1ccccc1C)n2C,inactive: 125%
5,Cc1nnc(NC(=O)CCCN2C(=O)/C(=C/c3cccs3)SC2=S)s1,inactive: 107%
6,Cc1ccc(Nc2nc(C(=O)NCc3ccco3)cs2)cc1,inactive: 116%
7,Cc1ccc(S(=O)(=O)Nc2cc3c(cc2N2CCOCC2)n(C)c(=O)n3C)c(C)c1,inactive: 79%
8,CCC(C(=O)Nc1cccc(C#N)c1)n1c(=O)c(-c2ccccc2NC(C)=O)nc2ccccc21 (stereo unspecified),inactive: 96%
9,Cc1ccc(CSc2nc(=O)c3c(n2C)NC(=O)CC3c2ccc(OC(C)C)cc2)cc1 (stereo unspecified),inactive: 86%
10,CCN1CCC(N(Cc2cccc(OC)c2)C(=O)Nc2ccc(C)cc2Cl)CC1,inactive: 53%
11,CCCCCNC(=O)C(=O)NCC(c1ccc2c(c1)OCO2)N1CCOCC1 (stereo unspecified),inactive: 68%
12,CCc1nnc(NC(=O)CSCc2cc(=O)c3ccc(C)cc3[nH]2)s1,inactive: 120%
13,CCOC(=O)c1cc2c(ccn2-c2ccc(F)cc2)n1CC(=O)N1CCc2ccccc21,inactive: 116%
14,Cc1cc(C)nc(SC2CCCCC2=O)n1 (stereo unspecified),inactive: 110%
15,COc1cc(NC(=O)c2cnn(-c3cccc(F)c3)c2C2CCNCC2)cc(OC)c1OC,inactive: 74%
16,COc1cccc(CN(CCO)Cc2ccccc2)c1OC,inactive: 119%
17,Cc1ccc(S(=O)(=O)CCSc2nc(C)cc(C)c2C#N)cc1,inactive: 96%
18,O=C(CN(C1CCCCC1)S(=O)(=O)c1ccccc1)NCc1ccco1,inactive: 109%
19,Cc1ccc(C)c(NC(=O)CCCn2nc(C)c3sc4ccccc4c3c2=O)c1,inactive: 89%

row,Structure (SMILES),survival
1,Cc1cc(O)c(C(c2ccccc2Cl)N2CCN(c3ccccc3)CC2)c(=O)n1Cc1ccco1 (stereo unspecified),inactive: 77%
2,O=C(C1=C(O)C(=O)N(CCN2CCOCC2)C1c1ccccc1)c1ccco1 (stereo unspecified),inactive: 99%
3,CCCN(CCC)CCNC(=O)c1cc2c(-c3ccccc3F)nn(C)c2s1,inactive: 97%
4,COc1cc(CN(C(=O)COc2ccc(C)c(C)c2)c2ccccn2)cc(OC)c1OC,inactive: 80%
5,COc1ccc(NC(=O)CN(Cc2ccccc2)S(=O)(=O)c2ccc3nc(C)sc3c2)cc1,inactive: 77%
6,CCN(CC)C(=O)CSc1nnc2c(n1)[nH]c1ccc(C(C)C)cc12,inactive: 113%
7,CCCCN(CC)CCCNC(=O)c1cc2c(-c3ccc(OC)c(OC)c3)nn(C)c2s1,inactive: 100%
8,CCN(CC)CCNC(=O)Cn1ncc2c([nH]c3ccccc32)c1=O,inactive: 72%
9,Cn1nc(C(=O)N2CCN(c3ccccc3F)CC2)c2c1-c1ccccc1SC2,inactive: 50%
10,O=C1c2oc3ccc(F)cc3c(=O)c2C(c2cccc([N+](=O)[O-])c2)N1CCCN1CCOCC1 (stereo unspecified),inactive: 79%
11,Cc1ccc(NC(=O)c2cccn2-c2nnc(N3CCCCC3)s2)cc1Cl,inactive: 88%
12,CCOc1ccc(-c2cnc(NCc3ccc(OC)cc3OC)n2C)cc1,inactive: 68%
13,COCCNC(=O)C1CCCN(S(=O)(=O)c2ccc3c(ccn3C)c2)C1 (stereo unspecified),inactive: 47%
14,O=C(NCc1ccc(F)cc1)c1ccc(NC(=O)N2CC3CCCN3c3ccccc32)cc1 (stereo unspecified),inactive: 123%
15,COc1ccc(Cl)cc1NC(=O)CCC(=O)c1ccc(C)cc1,inactive: 85%
16,CC(=O)c1ccc(NC(=O)c2ncn(-c3ccccc3)n2)cc1,inactive: 65%
17,Cc1ccc2nc(N(Cc3cccnc3)C(=O)C3COc4ccccc4O3)sc2c1 (stereo unspecified),inactive: 71%
18,Cc1ccc(CSc2cn(CC(=O)N3CCCCC3)c3ccccc23)cc1,inactive: 90%
